{"source": "paper PMC4336329", "about": "(PLoS ONE, 2015)", "note": "Screen size: about 310,000 compounds; about 14,000 (4.5%) showed an effect of 50% or more. The effect is printed as a negative number. Some of the results follow.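 Note: peak tail current of the secondary pulse compared with the same well before compound.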"}
{"molecular_target": "human ether-à-go-go-related gene (hERG) potassium channel (human, UniProt Q12809)", "sequence (Q12809 whole entry, looked up)": "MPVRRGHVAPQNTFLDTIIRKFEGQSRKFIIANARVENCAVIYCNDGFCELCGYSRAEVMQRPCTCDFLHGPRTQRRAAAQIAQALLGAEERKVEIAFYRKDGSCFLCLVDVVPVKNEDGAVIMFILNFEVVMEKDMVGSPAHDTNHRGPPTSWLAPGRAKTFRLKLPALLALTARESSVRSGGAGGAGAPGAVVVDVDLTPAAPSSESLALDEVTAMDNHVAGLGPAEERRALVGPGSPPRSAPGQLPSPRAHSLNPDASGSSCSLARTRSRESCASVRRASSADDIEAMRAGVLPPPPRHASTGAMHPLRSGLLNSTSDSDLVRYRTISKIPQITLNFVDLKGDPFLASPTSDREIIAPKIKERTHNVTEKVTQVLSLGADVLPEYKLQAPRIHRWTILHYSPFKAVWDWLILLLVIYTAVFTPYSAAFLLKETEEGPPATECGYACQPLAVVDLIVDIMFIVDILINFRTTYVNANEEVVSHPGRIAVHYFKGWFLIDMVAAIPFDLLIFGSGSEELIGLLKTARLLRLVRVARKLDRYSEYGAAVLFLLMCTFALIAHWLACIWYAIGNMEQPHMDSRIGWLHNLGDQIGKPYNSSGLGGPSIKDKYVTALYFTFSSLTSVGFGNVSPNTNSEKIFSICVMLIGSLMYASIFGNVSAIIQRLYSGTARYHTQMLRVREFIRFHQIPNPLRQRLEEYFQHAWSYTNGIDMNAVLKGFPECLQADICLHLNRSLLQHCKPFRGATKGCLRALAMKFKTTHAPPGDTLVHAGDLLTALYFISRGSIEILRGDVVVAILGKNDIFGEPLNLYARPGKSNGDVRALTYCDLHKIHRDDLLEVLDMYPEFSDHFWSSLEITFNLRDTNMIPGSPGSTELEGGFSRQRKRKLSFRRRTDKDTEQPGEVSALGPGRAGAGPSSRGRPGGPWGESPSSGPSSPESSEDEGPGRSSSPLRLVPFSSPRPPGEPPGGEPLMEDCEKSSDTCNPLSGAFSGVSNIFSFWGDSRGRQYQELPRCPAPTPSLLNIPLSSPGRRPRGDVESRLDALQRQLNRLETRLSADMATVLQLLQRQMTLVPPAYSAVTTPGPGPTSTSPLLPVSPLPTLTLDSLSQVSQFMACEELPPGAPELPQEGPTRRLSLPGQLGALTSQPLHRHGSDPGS", "test": "primary screen, population patch clamp on CHO cells stably expressing hERG", "units": {"hERG current change (%, negative = inhibition) at 10uM": "%"}}
{"smiles": "CS(=O)(=O)N(CC(=O)Nc1ccccc1C(=O)NCc1ccco1)c1ccccc1F", "hERG current change (%, negative = inhibition) at 10uM": -0.48}
{"smiles": "Cn1cc(C(=O)OCC(=O)N2CCCC2)c2ccccc21", "hERG current change (%, negative = inhibition) at 10uM": 2.96}
{"smiles": "COc1ccc(C(=O)Nc2ccc(Oc3nc(C)nc4sc(-c5ccccc5)cc34)cc2)cc1OC", "hERG current change (%, negative = inhibition) at 10uM": 10.7}
{"smiles": "CC(=O)c1ccc(OCC(=O)N(C)CC(=O)Nc2ccc(N3CCOCC3)cc2)cc1", "hERG current change (%, negative = inhibition) at 10uM": 9.61}
{"smiles": "COCc1cc(C)nc(SCC(=O)Nc2cccc(C)c2)c1C#N", "hERG current change (%, negative = inhibition) at 10uM": 14.2}
{"smiles": "CCN(CC(=O)Nc1cccc(S(=O)(=O)N2CCOCC2)c1)Cc1ccccc1", "hERG current change (%, negative = inhibition) at 10uM": -4.27}
{"smiles": "COc1ccc(-c2cc(=[NH+]c3cccc(C(=O)O)c3)c3cc(C)ccc3o2)cc1.[O-][Cl+3]([O-])([O-])[O-]", "hERG current change (%, negative = inhibition) at 10uM": -0.536}
{"smiles": "CCOC(=O)CC(NC(=O)c1cc2cccc(OC)c2oc1=O)c1cccc([N+](=O)[O-])c1", "note": "(centres unmarked)", "hERG current change (%, negative = inhibition) at 10uM": -23}
{"smiles": "N#CCCN(CCC#N)C(=O)C1c2ccccc2Oc2ccccc21", "hERG current change (%, negative = inhibition) at 10uM": 14.4}
{"smiles": "COc1ccc(-c2cn3cccnc3n2)cc1NC(=O)C(C)Oc1ccccc1", "note": "(centres unmarked)", "hERG current change (%, negative = inhibition) at 10uM": 8.13}
{"smiles": "COc1ccccc1C1=NOC(Cn2c(=O)c3c(ncn3C)n(C)c2=O)C1", "note": "(centres unmarked)", "hERG current change (%, negative = inhibition) at 10uM": 8.13}
{"smiles": "O=C1CCc2cc(S(=O)(=O)Nc3cccc(F)c3)cc3c2N1CC3", "hERG current change (%, negative = inhibition) at 10uM": -17.5}
{"smiles": "CC(C)Oc1cccc(-c2cc(C(=O)N3CCN(c4ncccn4)CC3)c3ccccc3n2)c1", "hERG current change (%, negative = inhibition) at 10uM": -16.9}
{"smiles": "O=C(CCc1ccccc1)Nc1ccc(S(=O)(=O)N2CCCC2)cc1", "hERG current change (%, negative = inhibition) at 10uM": 4.69}
{"smiles": "Cc1cccc(C)c1NC(=O)CNCC(=O)N(C)C", "hERG current change (%, negative = inhibition) at 10uM": 21}
{"smiles": "CCc1cc2c(COC(=O)c3c(C)noc3C)cc(=O)oc2cc1O", "hERG current change (%, negative = inhibition) at 10uM": 32.8}
{"smiles": "Cn1cc(CN2CCCC(C(=O)Nc3ccc(-c4cccc(F)c4)cc3)C2)cn1", "note": "(centres unmarked)", "hERG current change (%, negative = inhibition) at 10uM": -43.9}
{"smiles": "CCOC(=O)CSc1nnc(NC(=O)c2cccc([N+](=O)[O-])c2C)s1", "hERG current change (%, negative = inhibition) at 10uM": 7.4}
{"smiles": "COC(=O)CCS(=O)(=O)c1ccc(NC(C)=O)cc1", "hERG current change (%, negative = inhibition) at 10uM": 13.3}
{"smiles": "CCCOc1ccc(C2C(=O)N(C3CCCCCC3)CC(=O)N2Cc2ccco2)cc1OC", "note": "(centres unmarked)", "hERG current change (%, negative = inhibition) at 10uM": -36.7}
{"smiles": "CCOc1ccccc1N1CC(C(=O)Nc2cc(Cl)ccc2C)CC1=O", "note": "(centres unmarked)", "hERG current change (%, negative = inhibition) at 10uM": -8.64}
{"smiles": "CC1(C)CC(=O)N(Cc2ccccc2)C(=O)C1", "hERG current change (%, negative = inhibition) at 10uM": 5.15}
{"smiles": "Cc1ccc(C)c(OCCC(=O)Nc2cccc(S(=O)(=O)N3CCCC3)c2)c1", "hERG current change (%, negative = inhibition) at 10uM": 4.94}
